Test results taken from the supplement of paper PMC8728848.
The other results are listed elsewhere or left out.

What was measured:
Experiment in all cases: glycan array binding signal (z-score within array); higher = stronger binding
Settings in all cases: glycan notation: IUPAC condensed, linker removed
[1] = molecular target: Fuc(a1-2)[GalNAc(a1-3)]Gal(b1-4)GlcNAc(b1-3)Gal(b1-4)GlcNAc
In short: (§1)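 Glycan array data came from 3228 arrays in the Consortium for Functional Glycomics database, and only arrays with an available protein sequence were kept. Glycan names were put into IUPAC-condensed notation, and columns mapping to the same glycan were averaged. The binding signal is a within-array Z-score, averaged across arrays of one protein sequence run at different concentrations or buffers and across linkers. A negative Z-score can be read as non-binding.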

[2] = molecular target: Fuc(a1-2)[GalNAc(a1-3)]Gal(b1-4)GlcNAc(b1-3)Gal(b1-4)GlcNAc(b1-3)Gal(b1-4)GlcNAc
In short: as §1

[3] = molecular target: Fuc(a1-2)[GalNAc(a1-3)]Gal(b1-4)GlcNAc(b1-3)GalNAc
In short: as §1

[4] = molecular target: Fuc(a1-2)[GalNAc(a1-3)]Gal(b1-4)GlcNAc(b1-3)[Fuc(a1-2)[GalNAc(a1-3)]Gal(b1-4)GlcNAc(b1-6)]GalNAc
In short: as §1

[5] = molecular target: Fuc(a1-2)[GalNAc(a1-3)]Gal(b1-4)GlcNAc(b1-6)GalNAc
In short: as §1

[6] = molecular target: Fuc(a1-2)[GalNAc(a1-3)]Gal(b1-4)[Fuc(a1-3)]GlcNAc
In short: as §1

[7] = molecular target: Fuc(a1-2)[GalNAc(a1-3)]Gal(b1-4)[Fuc(a1-3)]GlcNAc(b1-3)GalNAc
In short: as §1

[8] = molecular target: Fuc(a1-2)[GalNAc(a1-4)]Gal(b1-4)GlcNAc
In short: as §1

[9] = molecular target: Fuc(a1-2)[GalNAc(b1-3)]Gal
In short: as §1

[10] = molecular target: Fuc(a1-3)GlcNAc
In short: as §1

[11] = molecular target: Fuc(a1-3)[Gal(b1-4)]Glc6S
In short: as §1

[12] = molecular target: Fuc(a1-3)[Gal(b1-4)]GlcNAc
In short: as §1

[13] = molecular target: Fuc(a1-3)[Gal(b1-4)]GlcNAc(b1-2)Man
In short: as §1

[14] = molecular target: Fuc(a1-3)[Gal(b1-4)]GlcNAc(b1-2)Man(a1-3)[Fuc(a1-3)[Gal(b1-4)]GlcNAc(b1-2)Man(a1-6)]Man(b1-4)GlcNAc(b1-4)GlcNAc
In short: as §1

[15] = molecular target: Fuc(a1-3)[Gal(b1-4)]GlcNAc(b1-2)Man(a1-3)[Fuc(a1-3)[Gal(b1-4)]GlcNAc(b1-2)Man(a1-6)]Man(b1-4)GlcNAc(b1-4)[Fuc(a1-6)]GlcNAc
In short: as §1

[16] = molecular target: Fuc(a1-3)[Gal(b1-4)]GlcNAc(b1-3)Gal(b1-3)[Fuc(a1-4)]GlcNAc
In short: as §1

[17] = molecular target: Fuc(a1-3)[Gal(b1-4)]GlcNAc(b1-3)Gal(b1-4)[Fuc(a1-3)]GlcNAc
In short: as §1

[18] = molecular target: Fuc(a1-3)[Gal(b1-4)]GlcNAc(b1-3)Gal(b1-4)[Fuc(a1-3)]GlcNAc(b1-3)Gal(b1-4)[Fuc(a1-3)]GlcNAc
In short: as §1

[19] = molecular target: Fuc(a1-3)[Gal(b1-4)]GlcNAc(b1-3)GalNAc
In short: as §1

[20] = molecular target: Fuc(a1-3)[Gal(b1-4)]GlcNAc(b1-4)Gal(b1-4)[Fuc(a1-3)]GlcNAc
In short: as §1

[21] = molecular target: Fuc(a1-3)[Gal(b1-4)]GlcNAc(b1-4)Gal(b1-4)[Fuc(a1-3)]GlcNAc(b1-4)Gal(b1-4)[Fuc(a1-3)]GlcNAc
In short: as §1

[22] = molecular target: Fuc(a1-3)[Gal(b1-4)]GlcNAc(b1-6)GalNAc
In short: as §1

[23] = molecular target: Fuc(a1-3)[Gal(b1-4)]GlcNAc(b1-6)[Gal(b1-3)GlcNAc(b1-3)]Gal(b1-4)Glc
In short: as §1

B1: ECA (Erythrina cristagalli), P83410 (protein)
chain: VETISFSFSEFEPGNDNLTLQGAALITQSGVLQLTKINQNGMPAWDSTGRTLYTKPVHMWDSTTGTVASFETRFSFSIEQPYTRPLPADGLVFFMGPTKSKPAQGYGYLGVFNNSKQDNSYQTLAVEFDTFSNPWDPPQVPHIGIDVNSIRSIKTQPFQLDNGQVANVVIKYDAPSKILHVVLVYPSSGAIYTIAEIVDVKQVLPDWVDVGLSGATGAQRDAAETHDVYSWSFQASLPE
B1 was tested, and the “glycan array binding signal (z-score)” value [1] was -0.266, the “glycan array binding signal (z-score)” value [2] was 0.958 and the “glycan array binding signal (z-score)” value [3] was -0.051. For the same binder, the “glycan array binding signal (z-score)” value [4] was -0.238, the “glycan array binding signal (z-score)” value [5] was -0.336 and the “glycan array binding signal (z-score)” value [6] was -0.066. For the same binder, the “glycan array binding signal (z-score)” value [7] was -0.227, the “glycan array binding signal (z-score)” value [8] was -0.267 and the “glycan array binding signal (z-score)” value [9] was -0.272. The “glycan array binding signal (z-score)” value [10] was -0.33, the “glycan array binding signal (z-score)” value [11] was -0.107 and the “glycan array binding signal (z-score)” value [12] was -0.209. The “glycan array binding signal (z-score)” value [13] was -0.317, the “glycan array binding signal (z-score)” value [14] was -0.223 and the “glycan array binding signal (z-score)” value [15] was -0.103. For the same binder, the “glycan array binding signal (z-score)” value [16] was 0.128, the “glycan array binding signal (z-score)” value [17] was 0.227 and the “glycan array binding signal (z-score)” value [18] was -0.441. The “glycan array binding signal (z-score)” value [19] was -0.048, the “glycan array binding signal (z-score)” value [20] was -0.108 and the “glycan array binding signal (z-score)” value [21] was -0.249. For the same binder, the “glycan array binding signal (z-score)” value [22] was 0.269 and the “glycan array binding signal (z-score)” value [23] was -0.544.
